# Experimental data: the supplement of paper PMC5499739
# In all, about 16,000 sequences were measured (“Z-score”: median about -0.37, highest 2% from about 3.2 on). This is one part of the list.
# Test system: RBM10 RRM1-ZnF (GST-tagged construct)
# Assay: RNAcompete 7-mer binding Z-score; higher = stronger binding preference
# Procedure: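 RNAcompete: 20 pmol GST-tagged RBM10 RNA-binding constructs were incubated with a designed RNA pool of about 241,000 sequences up to 41 nt (1.5 nmol) on glutathione beads for 30 min at 4 °C and washed. Bound RNAs were identified by microarray hybridisation. Each RNA 7-mer is scored by a one-sided Z-score of its enrichment, computed over probes that contain the 7-mer within longer pool sequences.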
row,Sequence,RNAcompete 7-mer binding Z-score
1,CUCGGUG,0.115
2,UCUAGUG,-0.34
3,UCAACGU,-0.626
4,CAGCACU,-0.412
5,GACCGGC,-0.532
6,CUCCUUA,-0.863
7,UAUCCUC,-0.675
8,ACGGAUU,0.654
9,UAGCCUC,-0.733
10,UCAAUAC,-0.639
11,CAUAUUG,-0.477
12,ACACGCG,-0.321
13,UACGUCC,-0.61
14,AAAUAGU,-0.23
15,UCACACG,-0.314
16,GUGCCCA,-0.574
17,AUAUCUA,-0.467
18,AGGACAA,0.907
19,UCCUUUU,-0.85
20,CCUGUAA,-0.899
21,CUUUAAA,-0.782
22,GGUGUCG,1.54
23,AAUCGUC,-0.733

row,Sequence,RNAcompete 7-mer binding Z-score
1,GGGUUGC,2.56
2,AUGUCCA,-0.756
3,ACGUUGU,-0.253
4,CUAUUUC,-0.977
5,GGGCUUU,0.566
6,UAUAGGC,0.196
7,CAAGAGA,0.0755
8,CCAGACU,-0.746
9,GUACGUU,-0.24
10,UGAGUUU,-0.132
11,UGCGGUG,1.58
12,ACUUCAA,-0.701
13,GACGGGU,2.36
14,UAAGUAA,-0.165
15,UUACGAG,-0.171
16,ACACGAU,-0.503
17,UGAAAUU,-0.617
18,AUGACCC,-0.513
19,UUCCCAA,-0.789
20,UGGAGUC,0.972
21,GCGGUUA,1.32
22,GCUACCC,-0.633
23,GGAAUGG,4.85

row,Sequence,RNAcompete 7-mer binding Z-score
1,CAGGCCG,-0.149
2,UGGUGAA,1.71
3,AUCCGCC,-0.763
4,UGUACGU,-0.175
5,GAAGCGC,0.0885
6,GAAGGUA,3.84
7,GUAAGUU,0.0918
8,UAAGAAC,-0.305
9,ACGAAAA,-0.233
10,GGAAAUC,0.745
11,GUUUAUG,0.28
12,UUUGUUA,-0.753
13,AGGGGUC,1.98
14,GUCAUAU,-0.402
15,UGGACCC,0.105
16,CUCCUAA,-0.74
17,ACUCUAG,-0.555
18,AAUUGAA,-0.178
19,GCACUUA,-0.555
20,UGUCCUA,-0.574
21,UGCCUUU,-0.886
22,UGGGAAC,2.22
23,UCUGUUA,-0.763

row,Sequence,RNAcompete 7-mer binding Z-score
1,CGCGACU,-0.662
2,UAAUUUU,-0.798
3,GAAUGUG,1.27
4,GUUCGUG,0.0755
5,CGGUGCG,0.8
6,GGAUUAG,2.37
7,GCUGCCA,-0.578
8,CAAUCGU,-0.714
9,GUAAAGU,0.54
10,ACAGAAA,-0.256
11,UGCUGCG,-0.11
12,UUGCCCG,-0.659
13,CCACCGU,-0.392
14,AAGGUCA,0.904
15,CCAGACG,-0.402
16,CGUUAAC,-0.649
17,GGGGCAG,3.4
18,CCGGUCU,-0.649
19,AGCGGAG,2.14
20,GCGUGUA,0.212
21,CAGACCU,-0.678
22,GCCGGCU,-0.649
23,UGAUUUU,-0.818

row,Sequence,RNAcompete 7-mer binding Z-score
1,CUUAUUC,-0.863
2,GUCCUCA,-0.792
3,AGGACCC,-0.516
4,CGAUGAA,0.0853
5,CAAAUCG,-0.513
6,UACACGU,-0.526
7,UUCUAAG,-0.636
8,AUGAUCC,-0.675
9,AGUCACC,-0.636
10,UUCUCAG,-0.6
11,UAACAUA,-0.363
12,UGCGCUG,-0.155
13,UGUCAGG,0.371
14,CCAGGGA,1.51
15,UGCUCGU,-0.633
16,AAGGAUC,1.32
17,UCCGGCA,-0.785
18,AAAUUUA,-0.425
19,GCGGUCU,-0.136
20,UAAUGCU,-0.74
21,GCCACAU,-0.591
22,UGAACUC,-0.672
23,CGCAGGU,0.355

row,Sequence,RNAcompete 7-mer binding Z-score
1,UCCGACG,-0.548
2,UGCAAGU,0.0495
3,AAUAAUG,-0.0837
4,GCUUGUU,-0.626
5,UACUUGA,-0.555
6,AUAAGUU,-0.0577
7,UAUUUCA,-0.623
8,GAUUGGU,1.91
9,CGUGGGC,1.85
10,UGAACGU,-0.181
11,AAACAUG,-0.149
12,UUUGGGG,2.72
13,CAUGUUU,-0.707
14,AGCCAUU,-0.941
15,GAGCUCA,-0.613
16,AUAUUCA,-0.509
17,AUCUUCC,-0.691
18,AGAUAUC,-0.688
19,AUCAGAG,0.095
20,GCGACUU,-0.519
21,GGACCAG,0.79
22,CGUCUCA,-0.737
23,GUAUAUC,-0.214

row,Sequence,RNAcompete 7-mer binding Z-score
1,UCUUUCA,-0.841
2,UUUUGCG,-0.785
3,AUUAUAU,-0.243
4,UCGUUGC,-0.522
5,UUUCGAG,-0.379
6,UAAGACU,-0.558
7,GUGAACA,0.573
8,GAGCUAG,0.566
9,ACGGUAA,0.872
10,CAACCCG,-0.597
11,AGAACUU,-0.688
12,ACCUUGA,-0.834
13,ACGUGGU,1.23
14,GGGAGAA,2.46
15,AAACGCA,-0.347
16,CCAUCGC,-0.772
17,GGCAACC,-0.0772
18,GUAUCUU,-0.639
19,GCUAUGU,-0.272
20,AACCAAG,-0.217
21,AUAAAGA,0.056
22,UGUCCAA,-0.681
23,UGCCGGU,0.0463

row,Sequence,RNAcompete 7-mer binding Z-score
1,AUUUCCU,-0.909
2,ACGCGUG,0.00404
3,CCUAACA,-0.815
4,GUGUCUC,-0.422
5,AAUGGCC,0.287
6,UUCCGCG,-0.704
7,AUAACUC,-0.678
8,GGGACGU,1.76
9,AUCCACG,-0.578
10,AGAUAUU,-0.399
11,CUUUGAA,-0.733
12,GACUACG,-0.0804
13,CCACGUU,-0.529
14,UCAGUCU,-0.681
15,AACGCCC,-0.659
16,CCUUAGC,-0.73
17,GCGGUUG,1.42
18,CAUUCAC,-0.688
19,GUCGGUU,0.244
20,CUUGAUG,-0.324
21,GUAAGAG,1.23
22,UGAGGUA,1.97
